# PubChem BioAssay AID662 (National Center for Advancing Translational Sciences (NCATS), 2007)
# Screen size: about 71,000 compounds; about 1,800 (2.5%) were called active. Inconclusive results, whose numbers are uncertain, are shown with a selection of clear calls. The call rests on the fitted dose curve; in most records, active means well fitted activation curve with a large enough effect in the signal ratio, with a control signal flat (not every such curve was filed as active); inconclusive means small, poorly fitted or top-dose-only effect, or effect the other way, or a change in a side signal; inactive means flat fitted curve, though single readings scatter; the % refers to the signal ratio. A potency beside an inconclusive call is a rough fit, not a confirmed value.
# Assay: Cell signaling CRE-BLA (Fsk stim); on activity change, negative = inhibition: % of control where 0% means no effect
# Conditions: CHO CRE-bla reporter (cAMP response element driving beta-lactamase), forskolin EC10, beta-lactamase ratio; activity change, negative = inhibition: at 38.2 µM (top of the series) unless noted
# Summary of the method: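 Beta-lactamase reporter under a cAMP responsive element in CHO cells; compounds tested in titration series against EC10 NKH 477, 3 h at 37 °C. Read-out: CCF4 FRET ratio 460nm/530nm (excitation 405nm) giving %Activity, fitted to AC50.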
# Potency means the concentration at half of the fitted maximal effect; tags describe the fitted curve by direction and shape.
SMILES,"activity change, negative = inhibition",Potency
Cc1ccc(NC(=O)CN(C)S(=O)(=O)c2cccc3nsnc23)cc1C,inconclusive: -17%,
COC(=O)c1ccccc1OCC(=O)NC1CCCCC1,,"inconclusive: 20 µM [rising, single point]"
O=S(=O)(c1cccc2nsnc12)N1CCc2ccccc2C1,,"inconclusive: 12.6 µM [falling, single point]"
CCOc1ccc(Nc2cc(C)nc3nc(C)nn23)cc1,,"inconclusive: 5.01 µM [rising, partial curve]"
O=C(O)CC/C=C\CC[C@H]1[C@@H](N2CCCCC2)[C@@H](O)C[C@@H]1OCc1ccc(-c2ccccc2)cc1,inconclusive: -4.64%,
Cc1ccc(-c2noc(CCC(=O)NC3CCCc4ccccc43)n2)cc1 (centres undefined),,inactive
CCN(CC(=O)Nc1ccc2c(c1)OCCO2)c1nc(-c2cccnc2)nc2ccccc12,,"inconclusive: 10 µM [rising, partial curve]"
CCn1c2ccccc2c2nnc(SCc3cc(=O)n4ccsc4n3)nc21,,active: 1 µM
COc1ccc(-c2cc(C(=O)Nc3cccc(C(C)=O)c3)no2)cc1,inconclusive: -2.87%,
O=C(Nc1cccc2c1CCCC2)C1CCCN(S(=O)(=O)c2cccc3nonc23)C1 (centres undefined),inconclusive: -10.4%,
Cc1cc(Nc2ncc(Cl)cc2Cl)n[nH]1,inconclusive: 7.78%,
O=C1c2ccccc2-c2ncnc3cccc1c23,,"inconclusive: 2 µM [rising, full curve, poor fit]"
Cc1cc(C)n(CCc2nc(-c3cc4ccccc4o3)cs2)n1,inconclusive: -3.15%,
CCOC(=O)c1c(C)nc2c(C#N)cnn2c1C,,"inconclusive: 12.6 µM [rising, partial curve]"
CCC1(C)Cc2ccccc2-c2c1c(=O)n(Cc1ccccc1)c1nnnn21 (centres undefined),,"inconclusive: 2.51 µM [rising, single point]"
Cc1cc(NC(=O)Cn2cnc3c2c(=O)n(C)c(=O)n3C)n(-c2ccccc2)n1,,"inconclusive: 5.01 µM [falling, single point]"
COc1ccccc1CNc1cc(-c2cccnc2)ncn1,,"inconclusive: 12.6 µM [rising, partial curve]"
CC1CCN(Cc2c(C#N)c3ccccc3n2C)CC1,,inactive
CCNc1ncc2nc(-c3cc(F)cc(F)c3)c(=O)n(CCc3ccccc3)c2n1,,"inconclusive: 0.501 µM [rising, full curve]"
Cc1cc(=O)[nH]c(SCC(=O)NCc2ccco2)n1,,inactive
COc1ccccc1CC(=O)N1CCN(c2cccc(C(F)(F)F)c2)CC1,,"inconclusive: 0.02 µM [rising, full curve, poor fit]"

SMILES,"activity change, negative = inhibition",Potency
Cc1cc(NC(=O)Cn2nc(C(F)(F)F)c3c2CCCC3)no1,,inactive
CCOC(=O)C(C)n1cnc2c(nnn2Cc2ccc(C)cc2)c1=O (centres undefined),,"inconclusive: 20 µM [rising, single point]"
COC(=O)c1nc(NC(C)=O)n[nH]1,,inactive
CCOC(=O)C1=C(C)NC(=O)NC1c1ccc(OC(C)C(=O)O)c(OC)c1 (centres undefined),,inactive
O=C(Nc1cc(Cl)ccc1O)c1cc2n(n1)C(C(F)(F)F)CC(c1ccc3c(c1)OCO3)N2 (centres undefined),inconclusive: -11.4%,
O=C(CSc1nnc(-c2ccccc2F)n1C1CCCCC1)N1CCCC1,inconclusive: 4.58%,
CN(C(=O)CSc1nnc(NC2CCCCC2)s1)C1CCS(=O)(=O)C1 (centres undefined),inconclusive: 11.8%,
COc1ccc(-n2c(Cc3cccn3C)nnc2SCC(=O)Nc2ccc(Cl)cc2)cc1,inconclusive: -10.7%,
Cc1ccc(N2C(=O)c3ccc(N)cc3C2=O)cc1C,,"inconclusive: 3.16 µM [falling, partial curve]"
c1ccc(-c2nn3nnnc3c3ccccc23)cc1,,"inconclusive: 25.1 µM [rising, single point]"
COc1ccccc1CN1CC2(CCN(S(C)(=O)=O)CC2)C1,,inactive
Cc1nnc(SCc2nnc(-c3ccccc3Br)o2)n1-c1ccccc1,inconclusive: 25.5%,
CCOC(=O)Cn1c(=O)oc2cc(S(=O)(=O)Nc3ccc(N(CC)CC)cc3C)ccc21,inconclusive: -11.7%,
COc1ccccc1CN1CC[C@@]2(CCCN(C(C)=O)C2)C1,inconclusive: 0.402%,
Cc1cc(C(=O)OCC(=O)N2CCN(c3ccccc3)CC2)c2ccccc2n1,inconclusive: 24.6%,
CCOc1cccc(C(=O)Nc2cccc(-c3nnc(-c4ccccc4)o3)c2)c1,inconclusive: 28.1% [at 7.6 µM],
Clc1ccccc1-c1nc(NCc2cccnc2)c2ccccc2n1,inconclusive: 11.1%,
CCOC(=O)N1CCN(C(=O)C2CCN(S(=O)(=O)N3CCCC3)CC2)CC1,inconclusive: -4.62%,
CCOC(=O)c1sc(=NC(=O)c2ccc(S(=O)(=O)N3CC(C)OC(C)C3)cc2)n(C)c1C (centres undefined),,inactive
Cc1cc(NC(=O)c2cc(Cl)ccc2Cl)no1,inconclusive: 25.6%,
CC(OC(=O)C(NC(=O)c1ccco1)C(C)C)C(=O)Nc1ncc(Cl)cc1Cl (centres undefined),inconclusive: -2.28%,

SMILES,"activity change, negative = inhibition",Potency
Cc1oc(-c2nc3ccccc3n2C)cc1C(=O)c1ccccc1,,"inconclusive: 10 µM [rising, partial curve]"
COc1ccc(C)cc1NCc1cccc(OC)c1OC,,inactive
CN1CCN(c2ncnc3ccc(-c4ccccc4Cl)cc23)CC1,,"inconclusive: 10 µM [rising, partial curve]"
CN(CC(=O)NC1CCCCC1)S(=O)(=O)c1ccc(Br)s1,inconclusive: 21.5%,
Cc1cccc(NC(=O)c2cnc3sccn3c2=O)c1,,inactive
COc1ccccc1CC(=O)Nc1ccc(-c2nnc(-c3ccco3)o2)cc1,,inactive
CC(C)Oc1ccc(N2CC(C(=O)Nc3ccccc3F)CC2=O)cc1 (centres undefined),,inactive
CC(C)OCCCNC(=O)CNC(=O)c1cccs1,inconclusive: -3.64%,
Cc1cc(C)c(NC(=O)C2CCCN2CCO)c(C)c1 (centres undefined),,inactive
Cc1ccc(SCc2cc(=O)[nH]c(N3CCCCC3)n2)cc1,inconclusive: -10.3%,
COc1ccc(C(OCCN2CCC[C@@H](C(=O)O)C2)(c2ccc(OC)cc2)c2ccc(OC)cc2)cc1,,inactive
Cc1cc(C(=O)COc2nncc3ccccc23)c(C)n1C,inconclusive: -9.95%,
CCOC(=O)C1CCN(C(=O)COC(=O)COc2ccccc2OC)CC1,,inactive
CCNc1ncc2nc(-c3cn(C)c4ccccc34)c(=O)n(-c3ccc(OC)cc3)c2n1,,"inconclusive: 1 µM [rising, full curve]"
O=C1[C@@H]2[C@H](Cc3ccc(O)cc3)N[C@]3(C(=O)Nc4ccccc43)[C@@H]2C(=O)N1c1ccc(F)cc1,inconclusive: -26.1%,
CSc1ccc(C2Nc3ccccc3-c3cc(C)nn32)cc1 (centres undefined),,inactive
COCCNC(=O)C(c1ccc(C)o1)N(C(=O)c1snc(C(N)=O)c1N)c1ccc(C)cc1 (centres undefined),,inactive
C=CCn1c(N)c(C(=O)Nc2ccccc2OC)sc1=S,inconclusive: 18.9%,
Cc1cc(C(=O)OCCO)c(C#N)c(N)n1,,"inconclusive: 12.6 µM [rising, single point]"
COc1ccc(N(C(=O)C(C)C)S(=O)(=O)c2ccc3c(c2)n(C)c(=O)n3C)cc1,,inactive
O=C(C1CCN(S(=O)(=O)c2cccnc2)CC1)N1CCN(C2CCCC2)CC1,,"inconclusive: 0.501 µM [rising, full curve]"

SMILES,"activity change, negative = inhibition",Potency
O=C1CCCC2=C1C1(CCCC1)N=C(Nc1nc3ccccc3o1)N2,inconclusive: -1.8%,
COc1ccc(CCNC(=O)C2CC2)cc1OC,,"inconclusive: 0.0631 µM [rising, full curve, poor fit]"
CC1CCCCN1CCNC(=O)c1ccc2c(=O)n(CCc3ccccc3)c(=O)[nH]c2c1 (centres undefined),,inactive
CCOc1ccc(-c2cc(CCCC(=O)Nc3cccc(OC)c3)no2)cc1,inconclusive: 19.1%,
COc1ccc(C2(O)CCN(C(=O)NC3CCCCC3)CC2)cc1,,inactive
Cc1ccccc1-n1nc(C)c2cc(C(=O)NCc3cccnc3)sc21,,"inconclusive: 25.1 µM [rising, single point]"
c1cncc(-c2nc(-n3ccnc3)c3ccccc3n2)c1,,"inconclusive: 7.94 µM [rising, partial curve]"
CN(Cc1ccccc1)C(=O)COC(=O)c1ccc2c(c1)OCO2,,inactive
c1ccc(Oc2cc(-n3cccn3)ncn2)cc1,,"inconclusive: 12.6 µM [rising, partial curve]"
N=c1c(C(=O)NCC2CCCO2)cc2c(=O)n3ccccc3nc2n1Cc1cccnc1 (centres undefined),,active: 12.6 µM
CCN(CC)CCc1nc(-c2ccccc2)no1,,inactive
Cc1nn(C)cc1CN(C)C(=O)c1nn2c(c1Cl)NC(c1cccs1)CC2C(F)(F)F (centres undefined),inconclusive: 23.3%,
O=C(Cl)c1ccc([N+](=O)[O-])cc1,,inactive
CCOCCOC(=O)c1[nH]c2c(c1C)C(=O)CC(c1ccc(N(C)C)cc1)C2 (centres undefined),,inactive
COCCNc1nc(C(C)(C)C)nc2c1nnn2Cc1ccccc1Cl,,inactive
CCCCNS(=O)(=O)c1ccc(OC)c2ncccc12,,inactive
CCn1c(=O)c(C(C)=O)nc2ccccc21,,"inconclusive: 10 µM [rising, partial curve]"
O=C(CN1C(=O)NC2(CCCC2)C1=O)Nc1nc(-c2ccc(F)cc2)cs1,,"inconclusive: 12.6 µM [rising, single point]"
OC1(c2cccc(C(F)(F)F)c2)CCNCC1,inconclusive: -7.17%,
CC(=O)OCC(=O)NCc1ccc2c(c1)OCO2,,"inconclusive: 5.01 µM [falling, single point]"
CCN1C(=S)SC(=O)C1=C1C=C(C)OC(C)=C1,,"inconclusive: 25.1 µM [falling, single point]"
